# Test results as given in the supplement of paper PMC3334620.
# In all, about 33,000 sequences were measured (“E-score (-0.5 to 0.5)”: median about -0.036, highest 2% from about 0.37 on). Some of the results follow.
# Target: T1, Yer064c (UniProt P40041)
# T1 sequence: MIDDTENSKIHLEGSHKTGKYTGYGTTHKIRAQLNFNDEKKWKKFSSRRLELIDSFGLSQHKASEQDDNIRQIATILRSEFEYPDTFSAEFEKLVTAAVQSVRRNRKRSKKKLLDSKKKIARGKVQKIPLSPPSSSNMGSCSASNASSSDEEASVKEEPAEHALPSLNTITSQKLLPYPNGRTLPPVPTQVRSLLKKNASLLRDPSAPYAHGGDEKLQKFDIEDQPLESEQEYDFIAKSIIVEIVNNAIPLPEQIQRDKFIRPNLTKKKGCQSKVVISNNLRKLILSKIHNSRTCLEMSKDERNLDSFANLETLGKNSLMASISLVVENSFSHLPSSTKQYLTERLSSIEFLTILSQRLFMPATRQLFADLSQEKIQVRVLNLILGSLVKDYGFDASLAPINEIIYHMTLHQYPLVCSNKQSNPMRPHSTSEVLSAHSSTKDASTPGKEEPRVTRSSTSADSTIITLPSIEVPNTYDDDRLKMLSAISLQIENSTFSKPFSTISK
# Test: PBM E-score (8-mer binding enrichment) (E-score (-0.5 to 0.5)); higher = stronger / more preferred TF binding; most listed sequences are background and not binding sites
# Settings: protein concentration: 200 nM; construct: GST-full length
# Procedure: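 Universal 'all 10-mer' protein binding microarrays (Agilent AMADID 015681) probed with GST-tagged S. cerevisiae TFs (full-length or DBD) made by in vitro transcription/translation (PURExpress), about 100-200 nM. Bound TF was detected with fluorescent anti-GST. Each ungapped 8-mer (which stands for itself and its reverse complement) is scored by the PBM enrichment score (E-score), a modified Wilcoxon-Mann-Whitney statistic from -0.5 to +0.5, computed with the Universal PBM Analysis Suite. Scale: above 0.35 generally sequence-specific binding.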
row,Sequence,PBM E-score
1,ATAGCTTC,-0.258
2,AGTAACCC,0.179
3,TTACGAAA,0.053
4,AACTATTG,-0.00378
5,AAGCCATT,0.125
6,CCCAAAGC,-0.121
7,AGTGACAA,0.0598
8,CCTCTCCG,-0.231
9,ACGACTCG,0.394
10,TCACGACA,0.0914
11,AGTAGGCA,0.00447
12,AGATGAGG,-0.0692
13,GAAACCTC,-0.149
14,AGGAGTGC,-0.352
15,ACAGAAAC,0.0324
16,CAGGTAAC,-0.013
17,CGTATCTA,-0.117
18,CGATATCG,0.0784
19,CCCTCAAC,-0.228
20,CCATGTAG,0.00415
21,AGCTCTCG,-0.152
22,ATCTGACA,-0.0612
23,AATGCCCT,-0.232
24,AAGAAAGA,0.162
25,ACGGTCGG,0.00214

row,Sequence,PBM E-score
1,TGATCGCA,-0.0724
2,GGTGCCGA,-0.129
3,CTAGAAAC,0.0516
4,CCACATTC,-0.0158
5,GCAGATCC,-0.0228
6,AGGGGGCC,-0.357
7,CATTAGCA,-0.0935
8,CTTTCCGC,-0.125
9,AGGTGACT,0.484
10,TGACCTAA,0.204
11,CCAGTCGG,-0.125
12,GATAGACA,0.0601
13,ATCCTGTG,0.00109
14,AAGTATGG,0.079
15,ATTAGTAC,0.205
16,AATAATTA,0.13
17,ATGGGCGG,-0.0899
18,CTAAGATC,0.0074
19,GCGTCCGA,-0.125
20,GGTAGGTA,0.0405
21,CCCAATAG,-0.158
22,AGCGTTTC,-0.125
23,AGCCTTTG,-0.205
24,AACGGAAT,-0.00613
25,ACAGCCGA,-0.222

row,Sequence,PBM E-score
1,GAATGTAA,-0.0881
2,CGCGCTAA,-0.0181
3,CGAGCACA,0.0683
4,GCCCGGCC,-0.0469
5,ATTCCAAC,0.079
6,AGCCGGAA,-0.22
7,AGATTAGG,0.16
8,CGTGCGTA,-0.0487
9,GCCAACCA,-0.199
10,GGCGGATA,-0.0818
11,AAACATTC,-0.137
12,CGCCTTCC,-0.169
13,AAGGTTAA,0.205
14,CGACGACC,-0.121
15,ACGTAGCA,-0.112
16,GACAACTC,-0.111
17,CCATGGTC,-0.0499
18,ACCCCCTC,-0.399
19,ATGCAGAG,-0.0631
20,ATGGCGAA,0.0775
21,GGCTGAGA,0.0401
22,CGTCCTCA,-0.126
23,AAAAACAA,0.0429
24,GTACCGAA,-0.0603
25,ACCGTACC,-0.0655

row,Sequence,PBM E-score
1,CGCACCAA,0.00864
2,ACGAATTC,-0.0901
3,GGGATCGA,-0.12
4,CAGCCCCC,-0.308
5,CTGGGAGA,-0.178
6,AGCTGGGG,0.0108
7,CCCCCGGC,-0.0733
8,GATCCCGA,-0.183
9,ATATGGAG,-0.107
10,AGGTCCCG,-0.252
11,GTAAGGCA,0.0072
12,GTCCATCA,-0.0251
13,CACGGCTG,-0.115
14,AGTCAATG,0.377
15,GATCGGGA,-0.195
16,CTAAATAG,0.0388
17,CCTGTGTC,-0.102
18,AGGGGAAG,-0.303
19,CGTAGTAC,0.064
20,AGACACTG,0.0291
21,GCCTCCGA,-0.224
22,ATCAGCGC,0.182
23,CCGCTCAA,-0.0697
24,CTGCATCA,-0.0294
25,CCTACTTC,-0.0773

row,Sequence,PBM E-score
1,AAAGGGGT,-0.196
2,ATATACAC,0.0575
3,AACAACGG,-0.0346
4,CATCGCGA,0.0199
5,CCGGTCAA,-0.11
6,CGGCACCC,-0.276
7,CAAGACTC,0.429
8,AGCTCAAA,0.106
9,ATAAGGCG,-0.134
10,CGGTCAAA,-0.0249
11,GGAGGAAC,-0.161
12,ATCTCAAG,-0.0959
13,AGGCTTGA,0.0633
14,CGACGTGA,0.0646
15,ATAGTTGC,0.0257
16,CAGGTGGC,0.0289
17,CGACCTCC,-0.251
18,CGTAGTCA,0.483
19,TACAGAAA,0.112
20,ACCAGCCG,-0.0843
21,ACTTGAAT,0.118
22,GAGGATAC,-0.159
23,CCAGTTCA,-0.114
24,AATCATTA,0.397
25,CCTCAGTA,-0.103

row,Sequence,PBM E-score
1,GACAACCA,0.0326
2,CGGTCAAC,-0.0708
3,CAACTGAG,0.1
4,ACTTCAGA,0.239
5,TAGCGCCA,-0.164
6,TAGGGATA,-0.141
7,GAAGCCGA,-0.0862
8,AGACGCCG,-0.264
9,GGCATCGA,-0.247
10,CGGCCCAC,-0.175
11,AATACACA,0.135
12,CCCTCCGC,-0.257
13,ATGTGGAA,-0.0113
14,GGAATAAC,-0.024
15,CTGGTTAA,0.162
16,CCTCTTAG,0.031
17,CTCGTACA,-0.0862
18,TAGTTTGA,0.0842
19,TATTCACA,0.013
20,CGGGAATC,0.0615
21,GCTGGGCC,-0.265
22,CACTCGCG,-0.074
23,GAGAAACC,-0.145
24,CTATCCCA,-0.208
25,ACCTATGG,0.0486

row,Sequence,PBM E-score
1,CCTCCTTA,-0.0895
2,AGTAATTA,0.215
3,AGACGAGG,-0.265
4,ATCGCGTA,-0.064
5,AACTCTTC,-0.0379
6,TAAACGTA,-0.0489
7,ATAACGCC,-0.224
8,ACTGTTCG,0.16
9,ACGTGTGA,0.149
10,AACCGGTG,-0.201
11,GTCGATTA,0.14
12,TCACGTAA,0.0225
13,CGGCCAAA,-0.054
14,CACCGCTA,-0.229
15,ATTGTTAA,0.145
16,CTGTTAAG,0.113
17,GCTTGACA,-0.189
18,AACTGTGT,-0.0355
19,AGCAAGCA,-0.237
20,GCCCCCGC,-0.414
21,ACGGCCAT,-0.168
22,GACGCTGA,0.201
23,GGTTACCA,-0.0717
24,TCCATGAA,0.141
25,CGAGCAAC,-0.076

row,Sequence,PBM E-score
1,GTAGCGGA,0.0493
2,ATTGGCAA,0.0157
3,CTGGTCGC,-0.174
4,CGTCGGGA,-0.118
5,ACGCGGAT,-0.0599
6,ATTTCCCG,-0.101
7,AAAGCGCT,-0.0519
8,ATCACGCA,0.254
9,TAGAGGAA,-0.079
10,AGAGTGTA,-0.0869
11,AAAGGTCT,-0.0473
12,CCTGTTAA,0.00635
13,ATAGAACA,-0.0734
14,CCAATCAG,0.0381
15,AGCGGCAG,-0.272
16,CGTCACTA,0.0406
17,ATGTACTA,-0.00272
18,ACTAAGGC,0.153
19,CCGTGTTA,-0.00223
20,ACCTTTAG,-0.0755
21,GGGAGGTA,-0.19
22,TCAGAGCA,-0.0716
23,AAATTCCA,-0.013
24,GCACGGCA,-0.121
25,ATATGATA,0.083

row,Sequence,PBM E-score
1,ACGCTGTG,-0.0445
2,ACAACAAC,0.204
3,ACTCAAAT,0.294
4,GACTTAAC,0.296
5,AATTAATA,0.179
6,GAGTGCGC,-0.143
7,CGCTCCAG,-0.143
8,ATAATATA,0.0466
9,ATCACGTG,0.0887
10,AATCAAGC,0.288
11,AGACACCC,0.236
12,CAACTTAC,-0.0378
13,AGGTGTCG,-0.0844
14,CTGGCCCA,-0.271
15,CATCAGGA,-0.0161
16,AGCCGCTA,-0.151
17,CGCATGAC,0.274
18,TCGTGCAA,0.235
19,GAGGGTGC,-0.281
